According to PubChem BioAssay (Tox21):
Inconclusive means that the source gave no clear call. Such entries were picked first, then a sample of the others. For some assays here: Potencies of inconclusive entries are left out as doubtful fits. The source made the active and inactive calls. Unless noted, calls come from the whole dose curve; as a rule, active = well fitted curve in the direction sought with a large enough effect in the repeat runs; inconclusive = weak or mixed curves; inactive = no such curve, though single readings can be large; an effect the other way counts as inactive or inconclusive.

Experiments:
[1] = qHTS assay to identify small molecule agonists or antagonists of the thyroid stimulating hormone receptor (TSHR) signaling pathway - wild type cell line counter screen (AID 1259384; calls by dose curve; note: % is set by controls: 0 for no effect and ±100 for the full control effect); conditions: HEK293 wild type, cAMP HTRF counter-screen; cAMP activity change: at 92.4 µM (top of the series), stronger effect = higher value unless noted
Procedure, shortened: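 Wild-type Hek293 cells, 800/well, 18 h at 37C, then compound with Ro20-1724 for 30 min RT. cAMP by HTRF (cAMP-d2/anti-cAMP cryptate), 1 h RT, fluorescence read. 15 concentrations, triplicates.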

[2] = qHTS assay to identify small molecule antagonists of the farnesoid-X-receptor (FXR) signaling pathway - cell viability counter screen (AID 743221; active = well fitted cell-killing curve with a large enough effect in the repeat runs, not every such curve was filed as active; inconclusive = weak or mixed curves, or effect the other way; inactive = no such curve, though single readings can be large or run the other way; note: % is set by controls: 0 for no effect and ±100 for the full control effect; nearly all actives have a fitted effect of over 50% in size); conditions: FXR-bla HEK293T viability, CellTiter-Glo luminescence, 16 h; activity change, negative = cytotoxicity: at 62.6 µM (top of the series) unless noted
Procedure, shortened: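 HEK 293T FXR-bla cells, 5 h pre-incubation; compound + CDCA 50 uM final, 16 h, 37 C; beta-lactamase FRET read first, then CellTiter-Glo luminescence, 30 min RT.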

Aromatase (Homo sapiens) = Aromatase (Homo sapiens) (UniProt P11511); test: qHTS assay to identify aromatase inhibitors (AID 743083); note: % is set by controls: 0 for no effect and ±100 for the full control effect; nearly all actives have a fitted effect of over 55% in size
Chain of UniProt P11511 (P11511 whole entry, looked up): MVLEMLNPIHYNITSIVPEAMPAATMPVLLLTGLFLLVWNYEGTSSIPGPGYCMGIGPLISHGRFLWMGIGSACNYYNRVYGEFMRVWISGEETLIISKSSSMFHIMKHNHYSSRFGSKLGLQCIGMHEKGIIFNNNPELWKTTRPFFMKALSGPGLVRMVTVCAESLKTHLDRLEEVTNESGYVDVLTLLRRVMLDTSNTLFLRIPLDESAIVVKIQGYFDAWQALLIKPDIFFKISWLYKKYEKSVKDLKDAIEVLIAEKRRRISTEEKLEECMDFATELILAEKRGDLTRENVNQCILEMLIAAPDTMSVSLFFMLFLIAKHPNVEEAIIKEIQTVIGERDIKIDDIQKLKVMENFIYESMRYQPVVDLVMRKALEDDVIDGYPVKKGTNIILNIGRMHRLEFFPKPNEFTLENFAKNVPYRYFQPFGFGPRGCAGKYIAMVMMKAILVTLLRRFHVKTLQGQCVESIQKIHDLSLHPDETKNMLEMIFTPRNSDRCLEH

[3] = qHTS assay to identify small molecule antagonists of the sonic hedgehog signaling (Shh) pathway - cell viability counter screen (AID 1259367); note: % is set by controls: 0 for no effect and ±100 for the full control effect; nearly all actives have a fitted effect of over 55% in size
Procedure, shortened: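 Seed 3T3 Gli1-Luc cells at 2,000 per well; incubate 4 hr; add compound in DMSO, then conditioned medium; incubate at 37C with 5% CO2; add CellTiter-Fluor after 23 hr; read fluorescence 1 hr later.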

[4] = biological target: Bile acid receptor (Homo sapiens) (UniProt Q96RI1); test: qHTS assay to identify small molecule agonists of the farnesoid-X-receptor (FXR) signaling pathway (AID 743220; active = well fitted activation curve with a large enough effect in the signal ratio in the repeat runs, not every such curve was filed as active; inconclusive = weak or mixed curves, or effect the other way; the % refers to the signal ratio; note: potency is the fitted concentration of half-maximal effect; for activation: % is set by controls: 0 for no effect and ±100 for the full control effect); conditions: HEK293T FXR-UAS-bla, beta-lactamase FRET ratio, 16 h; activation: at 62.6 µM (top of the series) unless noted
Chain of UniProt Q96RI1 (Q96RI1 whole entry, looked up): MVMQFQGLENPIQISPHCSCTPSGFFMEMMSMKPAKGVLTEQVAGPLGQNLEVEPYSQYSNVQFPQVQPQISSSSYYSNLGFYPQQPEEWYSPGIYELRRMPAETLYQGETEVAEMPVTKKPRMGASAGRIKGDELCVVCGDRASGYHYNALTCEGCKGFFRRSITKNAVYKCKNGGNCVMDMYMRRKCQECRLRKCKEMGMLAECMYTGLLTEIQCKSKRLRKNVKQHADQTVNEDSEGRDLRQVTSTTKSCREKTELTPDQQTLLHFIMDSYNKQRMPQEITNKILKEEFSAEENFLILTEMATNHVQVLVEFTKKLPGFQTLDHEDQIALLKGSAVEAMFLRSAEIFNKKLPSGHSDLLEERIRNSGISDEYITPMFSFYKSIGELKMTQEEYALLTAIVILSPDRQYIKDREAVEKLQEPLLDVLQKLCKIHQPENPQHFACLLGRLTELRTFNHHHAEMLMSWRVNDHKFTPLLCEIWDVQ
Procedure, shortened: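 Beta-lactamase reporter under UAS control in GeneBLAzer FXR HEK 293T cells (5000/well) measured with LiveBLAzer FRET substrate after 2 h at room temperature. Compound exposure lasted 16 h at 37C.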

[5] = qHTS assay for small molecule disruptors of the mitochondrial membrane potential - cell viability (AID 720634; calls by dose curve;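 note: human HepG2 liver cancer cells; % is set by controls: 0 for no effect and ±100 for the full control effect; nearly all actives have a fitted effect of over 20% in size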)
Procedure, shortened: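 HepG2 cells seeded overnight at 37 C, then exposed to compound or DMSO for 1 hr at 37 C, 5% CO2. m-MPI dye added, then CellTiter-Glo for 30 min at room temperature; viability read as ATP luminescence.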

[6] = qHTS RealTime-Glo MT Cell Viability Assay in HepG2 cells - 32 hour (AID 1224877); note: nearly all actives have a fitted effect of over 55% in size; note: potency is the fitted concentration of half-maximal effect
Procedure, shortened: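 qHTS, HepG2, 600 cells/well, RealTime-Glo (NanoLuc + prosubstrate) added with cells; 5 h preincubation; DMSO compound addition; 37 C; luminescence at 0/8/16/24/32/40 h.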

[7] = biological target: Vitamin D3 receptor (Homo sapiens) (UniProt P11473); test: qHTS assay to identify small molecule agonists of the vitamin D receptor (VDR) signaling pathway (AID 743222; calls by dose curve; note: % is set by controls: 0 for no effect and ±100 for the full control effect); conditions: HEK293T VDR-UAS-bla, beta-lactamase FRET ratio, 16 h; activation: at 63.5 µM (top of the series) unless noted
Chain of UniProt P11473 (P11473 whole entry, looked up): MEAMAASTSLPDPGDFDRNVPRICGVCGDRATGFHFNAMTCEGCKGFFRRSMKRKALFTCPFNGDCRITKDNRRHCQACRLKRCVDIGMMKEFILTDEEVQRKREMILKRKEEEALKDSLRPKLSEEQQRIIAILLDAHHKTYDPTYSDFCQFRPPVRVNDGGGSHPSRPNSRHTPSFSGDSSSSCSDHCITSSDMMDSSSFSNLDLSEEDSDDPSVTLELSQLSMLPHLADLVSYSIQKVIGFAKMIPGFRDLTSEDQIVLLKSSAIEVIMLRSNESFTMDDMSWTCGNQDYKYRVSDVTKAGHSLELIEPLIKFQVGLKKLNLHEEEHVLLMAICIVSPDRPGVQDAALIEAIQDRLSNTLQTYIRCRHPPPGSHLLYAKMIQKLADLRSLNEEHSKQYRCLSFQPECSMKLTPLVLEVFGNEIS
Procedure, shortened: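 VDR-bla cells were plated 4 h at 37C/5% CO2, then exposed to compounds in DMSO for 16 h. After LiveBLAzer B/G FRET substrate addition and 2 h at room temperature, beta-lactamase reporter fluorescence was read.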

[8] = qHTS assay to identify small molecule agonists of the estrogen receptor alpha (ER-alpha) signaling pathway in the presence of an antagonist - cell viability counter screen (AID 1259386);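 note: cells exposed to compounds for 22 h at 37 °C before the viability read; nearly all actives have a fitted effect of over 30% in size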; note: potency is the fitted concentration of half-maximal effect
Procedure, shortened: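 VM7Luc4E2 cells (endogenous full-length ER-alpha, 4×ERE-luciferase) were held 5 days in phenol red-free medium with 10% charcoal-stripped FBS, plated, then given 10.0nM ICI-182,780 and compounds at 15 concentrations for 22hr at 37C; viability read by CellTiter-Fluor fluorescence.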

[9] = Caspase-3/7 induction in CHO-K1 cells by small molecules, qHTS assay (AID 1346980); note: % is set by controls: 0 for no effect and ±100 for the full control effect; nearly all actives have a fitted effect of over 15% in size
Procedure, shortened: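 Wild-type CHO-K1 cells exposed to compounds for 17hr at 37 C, 5% CO2. Caspase-3/7 activity then measured by Caspase-Glo 3/7 luminescence after 30min at room temperature.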

[10] = qHTS RealTime-Glo MT Cell Viability Assay in HepG2 cells - 8 hour (AID 1224873); note: nearly all actives have a fitted effect of over 55% in size; note: potency is the fitted concentration of half-maximal effect
Procedure, shortened: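 HepG2 cells (600/well) mixed with RealTime-Glo MT reagent, settled 5 h at 37 C/5% CO2 before compound addition. Nonlytic NanoLuc luminescence from viable-cell prosubstrate reduction read repeatedly during 40 h treatment at 37 C.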

[11] = qHTS assay to identify small molecule antagonists of the androgen receptor (AR) signaling pathway using the MDA cell line in the presence of 0.5 nM R1881 - cell viability counter screen (AID 1259242); note: % is set by controls: 0 for no effect and ±100 for the full control effect; nearly all actives have a fitted effect of over 45% in size
Procedure, shortened: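 MDA-kb2 cells (human breast carcinoma, stably carrying MMTV-luciferase reporter) were exposed to compounds with 0.5 nM R1881 (final) for 16 hr at 37C, 0% CO2; viability then read as live-cell protease fluorescence (CellTiter-Fluor, 30 min) in the same wells.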

[12] = qHTS assay for small molecule agonists of the p53 signaling pathway - cell viability (AID 651633; calls by dose curve;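 note: p53RE-bla HCT reporter cells with a stable beta-lactamase p53 reporter; % is set by controls: 0 for no effect and ±100 for the full control effect; nearly all actives have a fitted effect of over 30% in size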)
Procedure, shortened: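 p53RE-bla cells were treated with compound for 16 hours at 37 C. Cytotoxicity was then measured as CellTiter-Glo luminescence after 30 min at room temperature.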

[13] = biological target: Androgen receptor (Homo sapiens) (UniProt P10275); test: qHTS assay to identify small molecule antagonists of the androgen receptor (AR) signaling pathway (AID 743035; active = well fitted inhibition curve with a large enough effect in the signal ratio in the repeat runs, not every such curve was filed as active; inconclusive = weak or mixed curves, or effect the other way; inactive = no such curve, though single readings can be large or run the other way; the % refers to the signal ratio; note: % is set by controls: 0 for no effect and ±100 for the full control effect); conditions: HEK293 AR-UAS-bla, R1881-stimulated, beta-lactamase FRET, 16 h; activity change, negative = inhibition: at 58.5 µM (top of the series) unless noted
Chain of UniProt P10275 (P10275 whole entry, looked up): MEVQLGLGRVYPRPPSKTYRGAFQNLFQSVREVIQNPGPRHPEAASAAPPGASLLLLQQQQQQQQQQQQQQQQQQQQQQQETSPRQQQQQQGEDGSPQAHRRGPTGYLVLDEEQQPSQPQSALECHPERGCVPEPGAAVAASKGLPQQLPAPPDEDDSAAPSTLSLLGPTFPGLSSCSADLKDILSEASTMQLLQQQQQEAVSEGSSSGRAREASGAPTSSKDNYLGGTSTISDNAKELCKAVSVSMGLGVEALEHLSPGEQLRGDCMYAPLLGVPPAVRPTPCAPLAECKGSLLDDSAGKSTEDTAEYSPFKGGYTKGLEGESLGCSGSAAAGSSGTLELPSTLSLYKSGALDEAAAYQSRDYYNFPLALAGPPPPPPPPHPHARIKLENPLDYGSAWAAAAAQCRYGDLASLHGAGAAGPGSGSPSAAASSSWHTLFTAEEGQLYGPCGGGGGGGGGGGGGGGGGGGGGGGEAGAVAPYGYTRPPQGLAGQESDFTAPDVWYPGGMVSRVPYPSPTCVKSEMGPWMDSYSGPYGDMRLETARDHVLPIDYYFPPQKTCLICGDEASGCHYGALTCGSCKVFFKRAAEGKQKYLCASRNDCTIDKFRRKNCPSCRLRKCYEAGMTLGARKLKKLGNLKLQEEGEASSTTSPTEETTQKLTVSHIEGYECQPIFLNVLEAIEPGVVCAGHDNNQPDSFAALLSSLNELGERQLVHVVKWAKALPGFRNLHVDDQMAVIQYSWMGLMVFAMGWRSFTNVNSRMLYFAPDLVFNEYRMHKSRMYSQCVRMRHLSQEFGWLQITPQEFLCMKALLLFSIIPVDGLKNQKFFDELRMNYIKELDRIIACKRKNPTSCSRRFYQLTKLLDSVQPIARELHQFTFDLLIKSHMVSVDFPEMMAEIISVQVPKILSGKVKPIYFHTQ
Procedure, shortened: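 HEK293 cells stably carrying a UAS-driven beta-lactamase reporter (AR-UAS-bla GripTite) were plated for 4 h at 37C, then given compound and the agonist R1881 and incubated 16 h. Reporter activity was read by LiveBLAzer B/G FRET fluorescence after 2 h at room temperature.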

[14] = A CellTox Green Cytotoxicity Assay to monitor cytotoxicity in HepG2 cells - 16 hour (AID 1224876); note: potency is the fitted concentration of half-maximal effect; nearly all actives have a fitted effect of over 45% in size
Procedure, shortened: (§1)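 HepG2 cells were seeded together with the CellTox Green dye at 600 cells/well, left 5 h at 37 C/5% CO2, then given compounds in DMSO. Fluorescence from dye bound to dead-cell DNA was read repeatedly over 40 h of treatment at 37 C.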

[15] = A CellTox Green Cytotoxicity Assay to monitor cytotoxicity in HepG2 cells - 0 hour (AID 1224882); note: potency is the fitted concentration of half-maximal effect; nearly all actives have a fitted effect of over 35% in size
Procedure, shortened: as §1

[16] = qHTS assay for small molecules that induce genotoxicity in human embryonic kidney cells expressing luciferase-tagged ATAD5 (AID 651632); note: % is set by controls: 0 for no effect and ±100 for the full control effect; nearly all actives have a fitted effect of over 15% in size
Procedure, shortened: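 HEK293T cells carrying a luciferase reporter tagged to ATAD5 were exposed to compound or DMSO vehicle for 16 hr at 37C, 5% CO2. Amplite was added, and after 30 min at room temperature luciferase activity was read as a marker of ATAD5 induction.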

[17] = qHTS assay to identify small molecule HDAC inhibitors - cell viability counter screen (AID 1259365); note: % is set by controls: 0 for no effect and ±100 for the full control effect; nearly all actives have a fitted effect of over 50% in size
Procedure, shortened: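 HCT-116 (wild type), 1,500 cells/well, overnight 37C/5% CO2; compound in DMSO 2hr; CellTiter-Glo 30min RT; luminescence read.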
Tags give direction and shape of the fitted curve or compound fluorescence and quenching.

Question: With `CC(O)COC(C)(C)C` (centres undefined) as the compound, how does the Potency [1] read?
Answer: inactive

Question: With `CCCCS` as the compound, how does the Potency [2] read?
Answer: inactive

Question: With `O=C(Cn1ccnc1[N+](=O)[O-])NCc1ccccc1` as the compound, how does the Potency (Aromatase (Homo sapiens)) read?
Answer: inactive

Question: What about the Potency [3] of the same compound?
Answer: inactive

Question: For `O=C1NC(c2ccccc2)(c2ccccc2)C(=O)N1COP(=O)(O)O`, which Potency [2] is on record?
Answer: inactive

Question: For `CC1=CC[C@H](CC=O)C1(C)C`, which Potency [4] is on record?
Answer: inactive

Question: For `CC(C)(CCC(=O)O)C(=O)O`, which Potency [5] is on record?
Answer: inactive

Question: With `O=C(O)CCCCCCCCC(=O)O` as the compound, how does the Potency [5] read?
Answer: inactive

Question: Which Potency [2] does the source give for `CC(=O)OCC(=O)[C@@]1(O)CCC2C3CCC4=CC(=O)CC[C@]4(C)C3[C@@H](O)C[C@@]21C` (some centres undefined) here?
Answer: inactive

Question: With `CCc1cccc(CC)c1N` as the compound, how does the Potency [2] read?
Answer: inactive

Question: Which Potency [6] does the source give for `O=P(O)(O)OP(=O)(O)O` here?
Answer: inactive

Question: Which results are given for `Cc1cc(N)no1`?
Answer: Potency [7]: inactive; Potency [8]: inactive; Potency [9]: inactive

Question: Which Potency [10] does the source give for `C[C@H](N)[C@H](O)c1cccc(O)c1` here?
Answer: inactive

Question: For `CCCc1ncc(C(=O)O)s1`, which Potency [7] is on record?
Answer: inactive

Question: Which results are given for `c1ccc2nccnc2c1`?
Answer: Potency [10]: inactive; Potency [11]: inactive

Question: With `CCCCO` as the compound, how does the Potency [4] read?
Answer: inconclusive [rising, partial curve, poor fit]

Question: For `CCCC(C)C(O)CC` (centres undefined), which Potency [12] is on record?
Answer: inactive

Question: What about the Potency [5] of the same compound?
Answer: inactive

Question: For `CC(=O)NCc1c(I)c(NC(C)=O)c(I)c(C(=O)O)c1I`, which activity change, negative = inhibition [13] is on record?
Answer: inconclusive: -44.4%

Question: And the Potency [14]?
Answer: inconclusive [activator, single point]

Question: What about the Potency [15] of the same compound?
Answer: inconclusive [activator, single point]

Question: Which Potency [7] does the source give for `Cc1[nH]c(=O)c(C#N)cc1-c1ccc2nccn2c1` here?
Answer: inactive

Question: And the Potency [10]?
Answer: inactive

Question: Which Potency [4] does the source give for `O=C(O)CCC(=O)Nc1ccc(S(=O)(=O)Nc2nccs2)cc1` here?
Answer: inconclusive [rising, partial curve, poor fit]

Question: And the Potency [14]?
Answer: inconclusive [activator, single point]

Question: Which results are given for `COc1cc(C(=O)OC(COCCC(C)C)CN2CCOCC2)cc(OC)c1OC` (centres undefined)?
Answer: Potency [4]: inactive; Potency [1]: inactive

Question: For `N=C(N)N1CCc2ccccc2C1`, which Potency [14] is on record?
Answer: inconclusive [activator, partial curve, poor fit]

Question: What about the Potency [15] of the same compound?
Answer: inconclusive [activator, partial curve, poor fit]

Question: Which Potency [10] does the source give for `CN(C)CCN(Cc1ccsc1)c1ccccn1` here?
Answer: inactive

Question: Which Potency (Aromatase (Homo sapiens)) does the source give for `CCOC(=O)OCC/C(SC(=O)OCC)=C(\C)N(C=O)Cc1cnc(C)nc1N` here?
Answer: inactive

Question: For `CC(C)(CO)CO`, which Potency [10] is on record?
Answer: inactive

Question: With `C[C@H]1C[C@H]2[C@@H]3CCC4=CC(=O)C=C[C@]4(C)[C@@]3(F)[C@@H](O)C[C@]2(C)[C@@]1(O)C(=O)CO` as the compound, how does the Potency [16] read?
Answer: inactive

Question: For `O=S(O)(O)=S`, which activation [16] is on record?
Answer: inactive: 2.28% [at 8.08 µM]

Question: Which results are given for `CCCCC(C)C(=O)O` (centres undefined)?
Answer: Potency [10]: inconclusive [rising, single point]; Potency [6]: inconclusive [cytotoxic, single point]; Potency [15]: inconclusive [activator, single point]

Question: With `Cc1cccc(N(C)C)c1` as the compound, how does the Potency [17] read?
Answer: inactive

Question: Which Potency [17] does the source give for `CC12CCC(C(=O)C1=O)C2(C)C` (centres undefined) here?
Answer: inactive

Question: With `CC(C)NCC(O)COc1ccc(CC(N)=O)cc1` (centres undefined) as the compound, how does the Potency [8] read?
Answer: inconclusive [cytotoxic, single point]

Question: With `CCCCCCCCCCCCCC(=O)OCC` as the compound, how does the Potency [3] read?
Answer: inactive
